This data set deals with N=C(N)NCCC[C@H](N)C(=O)O.

The term Km denotes the concentration of substrate that gives half-maximal velocity.

On to “Nitric oxide synthase, inducible (Homo sapiens) (sequence not shown)”, for which the Km was 2.2 µM.

The values are drawn from ChEMBL document CHEMBL1130474, “Conformationally restricted arginine analogues as inhibitors of human nitric oxide synthase” (Bioorg Med Chem Lett, 1997).
